Results on 62 sequences are retold here after the supplement of paper PMC3724861.

Some of the results follow.

For this test, the system named is T1, Caupolican (Caup) homeodomain DNA-binding domain.
T1 sequence: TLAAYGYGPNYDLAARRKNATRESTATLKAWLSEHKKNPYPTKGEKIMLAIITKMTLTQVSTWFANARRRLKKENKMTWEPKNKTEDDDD
The experiment in a line: PBM E-score (8-mer, recovered from the published 9-mer minima) (E-score (dimensionless, -0.5 to 0.5)); Drosophila protein; higher = stronger relative binding preference, active = 0.31 or more. The method, boiled down:
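Caup's homeodomain DNA-binding domain (residues 214-303) was produced by in vitro transcription and translation and applied at 100 nM to custom-designed protein binding microarrays. Each value is an enrichment score giving relative binding preference for a short DNA word; higher means stronger. Published 9-mer scores were the minimum of their two constituent 8-mer scores, and the 8-mer values were recovered from those minima. A cutoff of 0.31 marks candidate binding sequences.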
For the sequence AGTCGGTA, the “PBM E-score” value is inactive: 0.0133. Consider AACCCAGG, for which the “PBM E-score” value was inactive: -0.0346.

Regarding CGAAAGTC, the “PBM E-score” value is inactive: -0.142. Turning to CACTGCGC, the “PBM E-score” value is inactive: -0.211. To AAAGAGTG belongs inactive: 0.0835; to GTCCACTA, inactive: 0.0623; to AGTAAAAG, inactive: 0.0382. For the sequence GTCAAGTA, the “PBM E-score” value is inactive: 0.119.

As to AGGAGAGA, the “PBM E-score” value is no less than -0.0172. Turning to GAGACTCC, the “PBM E-score” value was inactive: -0.128.

Turning to CGCTGTCC, the “PBM E-score” value was inactive: 0.0333. Regarding CAAAAGTG, the “PBM E-score” value was inactive: 0.0472. For AAAAGGGA the value was inactive: -0.0407; for GTATACCA, inactive: 0.101; for AAACACTA, inactive: 0.193. Regarding AGGATGCG, the “PBM E-score” value was inactive: -0.136. For ACTAGAAG the value was inactive: 0.00911; for GTTCCGTA, inactive: 0.161; for AACATGCG, active: 0.356. For CCTAACGA, the “PBM E-score” value was inactive: -0.104. On to AAAAAGAT, for which the “PBM E-score” value is inactive: 0.0993. Consider CTCCCCGC, for which the “PBM E-score” value is inactive: -0.2. Take AGGAAGTA: the “PBM E-score” value was inactive: 0.0399.

With GACGCGTC, the “PBM E-score” value was inactive: -0.0916. In the case of CGGCTAAA, the “PBM E-score” value is inactive: -0.0694. For the sequence ACGTGGTG, the “PBM E-score” value is inactive: 0.063.

On to GGGGGTCA, for which the “PBM E-score” value is inactive: -0.293. To TGTTTGAA belongs inactive: 0.193; to AGAATTCG, inactive: 0.0601; to CGGGTGCC, inactive: -0.264.

In the case of ATGGCACC, the “PBM E-score” value was inactive: -0.167. On to AGTTTTAC, for which the “PBM E-score” value is inactive: 0.0904.

CGCGTTGC: the “PBM E-score” value is inactive: -0.0579. Regarding CTTGACCA, the “PBM E-score” value was inactive: 0.0911. As to AAGTAGCG, the “PBM E-score” value was inactive: -0.0607. For CGGTCAAG the value was inactive: -0.0422; for ACTGTAAC, inactive: 0.17. To CAGTTGAA belongs inactive: 0.0676; to ACGCATCA, no less than 0.0212.

Regarding GAACCAGA, the “PBM E-score” value was inactive: 0.034.

Turning to GGCCCCGA, the “PBM E-score” value is inactive: -0.219. For the sequence CAAGTTCC, the “PBM E-score” value was inactive: 0.0429. In the case of AGATAGAG, the “PBM E-score” value is inactive: -0.0135.

On to GTAGGTTA, for which the “PBM E-score” value was inactive: 0.112. Consider GTCTAAGA, for which the “PBM E-score” value was inactive: 0.0233.

Regarding GGCGGAGA, the “PBM E-score” value was inactive: -0.216. To GCATCGGC belongs inactive: -0.105; to CAATTCGC, inactive: 0.0736. For ACCTTTAT the value was inactive: 0.0326. Turning to GTAAGAGA, the “PBM E-score” value is inactive: 0.016. Turning to AGGAGACA, the “PBM E-score” value was inactive: 0.111. For CTGGGTTC, the “PBM E-score” value is inactive: -0.0931. As for GCGTACCC, the “PBM E-score” value was inactive: -0.114. For the sequence CTTCTCAA, the “PBM E-score” value is inactive: -0.0891. CACTGCGA: the “PBM E-score” value is inactive: -0.104. In the case of ACGTGCTA, the “PBM E-score” value is inactive: 0.0513. To ATCCACGC belongs inactive: -0.102. To GTTTTACA belongs inactive: 0.183; to CTCTATTC, inactive: 0.00353; to GTAATGAC, inactive: 0.17. To CTGTCGTA belongs inactive: 0.124; to GCCCTCAA, inactive: -0.171.
